Test results published in the supplement of paper PMC10126150.
Sequences with one replicate were seen in a single cluster, so their values are uncertain.

System: ATP
Experiment: switch fluorescence ratio, 500 uM ATP over buffer (Cy3 cluster intensity, sum of 5 cycles each) (fold (ratio)); higher = stronger signal-on switching upon ATP binding; sequences stand for … in TCGTCGGCAGCGTCAGATGTGTATAAGAGACAGTTTTTTTTTTTTTTTTTTTTTTTTT…TC
Details: aptamer strand: ATP DNA aptamer (quencher-CACCTGGGGGAGTATTGCGGAGGAAGG + anchor), 100 nM annealed; ATP concentration: 500 uM; one replicate
In short: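 Clusters with intensities outside 100-1000 RFU were excluded. The remaining Cy3-labelled switching-strand clusters on a modified Illumina MiSeq flow-cell had been annealed to 100 nM quencher-labelled ATP aptamer and imaged in selection buffer, then after 15 min with 500 uM ATP at 22 °C, for five cycles separated by NaOH stripping and re-annealing. The fluorescence ratio, averaged per switch-domain sequence, is each cluster's summed target-cycle Cy3 intensity over its summed buffer-cycle Cy3 intensity.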
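Note: ATP exposure 15 min at 22 °C before imaging.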

Sequence	switch fluorescence ratio
TGGGCCATTT	0.978
CTACCATCGT	0.989
ATGCCGAGTT	0.982
CAGATTGGTT	0.989
ATGTTGCCGG	1.04
TCACGTCCGG	1.04
GCTTAAGCGC	0.992
TTTTGATCTG	1.03
GGCATCCGTT	0.996
TTAGTAGAGA	1.11
GGATATATTC	0.998
TTGCCACAGT	1.03
TCCGGCGAGC	1.09
GTTCTCGGGG	0.984
ATTACGAGGC	1.08
GAGTATGGGC	0.978
CGCGGGTATC	1.04
GCCATAAACT	0.983
ATAATGTATT	0.96
GAAGCTGCT	0.874
CAGGTTTTGC	1.01
TATCGATTGA	1.01
GCCAACAAGA	1.03
ATTGGGGGCT	0.985
TGGCGCATCG	0.995

Sequence	switch fluorescence ratio
AAAGGCCTT	0.988
GGGATCAGTT	1.04
CCCATGTTCC	1.16
TCGCATTATA	1.53
ACGTCCGGAA	2.96
TAATCGTCAA	1.52
AGTATACGG	1.07
CGCTGCGGGC	1.23
AGCAGCCTAT	1
ATAGTCTTAA	0.93
AAGAATTCGG	0.983
TATGGCAGCC	0.966
ACCTGACGAA	3.04
GGGACGTCCA	0.984
GCGTCCGGT	1.05
AACCCGCGCG	1.05
CATTGATCCT	1.04
TGTATTTTAT	1.08
TTGAATGGGA	2.1
TCGGTCTCTG	0.953
AACACTGG	1.05
ATTTGAAGCT	0.843
CGTTGGTACT	1.04
CGTTTTAGGC	0.976
CTATGTACAC	1.06

Sequence	switch fluorescence ratio
GGCTTGTGGG	1.01
CTCATCTTTT	1.01
GTGCGCAGGG	1.05
AATATGGGGA	0.957
AAGGCGAACT	1.01
GCAATTACTG	1.98
TATAGTATAT	1.14
GCATTAGGC	0.977
CTACCGACGG	1.02
TTGTGGCCC	1.02
CGTGTATCAT	1.04
TTTTGGCCCT	1.02
AGAGTCCGGT	1.01
CGAGCCGGAC	1.03
CGTAGAACGA	1.02
AACTCGGAGC	1.03
AACGCGCCGG	1.02
CTGCTAGGC	1.58
AAAGGAATCG	1.02
ATATATGAGC	1.06
CATGTCCCGG	0.989
TCAAACGTGT	0.957
TACGGACATC	1.37
CTGAGGGAAT	1.01
ATTAATGTAT	0.973

Sequence	switch fluorescence ratio
TTCGTTGTAT	1
TTCCTCGGGC	1.71
ATCGCATTCG	0.966
ATCATAACG	0.969
GAGCCTGTGA	1.03
CTTTGCACAG	1.06
TATTATTTTA	1
CGCATGGTTG	1
AATACCCTTC	1.15
TTTGGGTAAC	1.04
AGGGAGGGAC	0.993
TTGTGCCAGA	0.995
GCAATGACGT	1.06
CGCAGAGGTG	1.48
CACGATTTGT	1
CTGCCTTCCG	2.28
TGATTTGTCC	1.02
AGCGAAATGC	1.29
CGGGAAGTTG	0.943
TATAAGATGA	1.01
ACGGATGCCT	1.01
CCGATATAAA	1.1
TGGCGCGGGG	0.976
ACTAGCGTCT	1.03
AAGCTATACG	1.81

Sequence	switch fluorescence ratio
CAGAAATTCA	0.969
CAACTGTCGG	1.01
ACTTTACAGA	1.37
TGTCACGGGG	0.949
CGCCGGGATC	1.2
GACGTGATTA	1.2
AGGCCTTACT	1.11
GCACTGTGAG	1.05
AGCGATCGGC	1.07
GGGGGCCCAC	0.994
CGCGTCTGTG	1
TATAGCTGCT	1.06
CTGGTTGCCA	0.978
ATCGTGAGCG	0.953
GCCGGATGAC	1.02
TTTAGGCCGG	1.01
AAACGTTTTC	0.992
AGGCTACCGA	0.991
CGGAAAAGTA	1.03
TAGACAGCAT	1.01
CATTGACCCC	1.11
TTTATAAGCG	1.02
TTCGAACATA	1
TTCATGATGG	1.01
CGATGGATTC	1.14

Sequence	switch fluorescence ratio
AGTGTTTCGG	0.947
GCGATCCCAA	1.09
GCGGACCCGC	0.98
TAGAAAGCGC	1.1
ACGTTACCAT	1.32
GGATTAAGGC	1.06
GACTTCAGGA	0.996
ATGAATAGGT	1
TCTTGTTAAG	1
ATGGGGCTAT	1.02
TGAGCATAAG	0.999
GTACCTCAAA	1.01
AGTCAGGC	0.976
AACGATAGT	1
TCAAAAACCG	1.22
CTTTGCTACG	1.01
ATCATTCGC	1.06
GGTGGGTCTG	1.03
GAATGGTGGC	0.98
GTGAAAGCTC	0.96
TCTTATATCA	1.02
AATTTGAGT	0.981
TCCCACATTC	1.11
CACATTTGGC	0.985
CGGGCCGTGA	0.971

Sequence	switch fluorescence ratio
GCCTTTTTAG	1
TGCTGGGCGG	1.01
GCCCTATCAC	1
CGGCGGTGTA	1.05
ATTGGGCATA	0.979
ACGCGTATCC	0.944
ACGATCAAGC	1.27
CCGATAAGGT	1.1
TTAAGTTTAT	0.985
GAGTTTGCAC	0.919
ATTCTCTTG	0.99
CCATGATTAA	0.986
AGCCTGACTT	1.13
ACCAGTAGTA	0.983
GACAAAGGCA	0.974
GTAGGTACTG	1.01
TCATCCTTAG	1.07
AGTAAATTAA	0.962
CAAGAAGGAG	0.981
TATGCTTCAC	1.02
ATATCGCAAT	5.44
CAAACCTCAA	1.09
ACAGGTCCCG	1.02
GTCGCGGTAT	0.975
TCTTTTCTCT	1.01

Sequence	switch fluorescence ratio
GGTAGCACA	1.04
CGGCGGCTCT	0.946
AGCAGTTTTA	0.991
ATAGTGATTG	0.995
GATCGACAGC	1.04
AGGCTAGAAA	1.03
TAATCCTTGC	1.88
CGGCGGAGCT	1.04
GTTTTCAAGA	0.997
TCTCTCGCGG	1.29
GCGTGCTCAC	1.01
GCAAGGGTCG	1.18
GATTTTCCC	1.03
ACTATAGTTA	0.976
GGTTGGCCTG	1.05
CATATCGCGA	1.06
AGCTACAAGT	1.03
TCGGTTCAAC	0.989
TGTAATAGAT	0.998
GATGTTAAT	0.986
AGGAAGTTTG	1
TAGTGAGTCT	1.01
TTACACATCC	1.03
GTTGCTTCCT	1.24
TAATGGAGAG	1.01
